{"source": "paper PMC9911399", "about": "“Two distinct binding modes provide the RNA-binding protein RbFox with extraordinary sequence specificity”", "binders": {"B1": {"name": "AAUAUCG (DNA:RNA)", "RNA": "GGGAGACCGGAAUUCAGAUUGUCCAAUAUCGUUAAAUCCCGUCGUAGCCACCA", "DNA 1": "CAATCTGAATTCCGGTCTCCC", "DNA 2": "TGGTGGCTACGACGGGATT"}, "B2": {"name": "UCAGGAG (DNA:RNA)", "RNA": "B1 RNA with A25U, A26C, U27A, A28G, U29G, C30A", "DNA 1": "CAATCTGAATTCCGGTCTCCC", "DNA 2": "TGGTGGCTACGACGGGATT"}, "B3": {"name": "AUGGAGC (DNA:RNA)", "RNA": "B1 RNA with A26U, U27G, A28G, U29A, C30G, G31C", "DNA 1": "CAATCTGAATTCCGGTCTCCC", "DNA 2": "TGGTGGCTACGACGGGATT"}, "B4": {"name": "UGGAGAU (DNA:RNA)", "RNA": "B1 RNA with A25U, A26G, U27G, U29G, C30A, G31U", "DNA 1": "CAATCTGAATTCCGGTCTCCC", "DNA 2": "TGGTGGCTACGACGGGATT"}, "B5": {"name": "GUCAUGG (DNA:RNA)", "RNA": "B1 RNA with A25G, A26U, U27C, C30G", "DNA 1": "CAATCTGAATTCCGGTCTCCC", "DNA 2": "TGGTGGCTACGACGGGATT"}, "B6": {"name": "CACCAAG (DNA:RNA)", "RNA": "B1 RNA with A25C, U27C, A28C, U29A, C30A", "DNA 1": "CAATCTGAATTCCGGTCTCCC", "DNA 2": "TGGTGGCTACGACGGGATT"}, "B7": {"name": "UCCCCGG (DNA:RNA)", "RNA": "B1 RNA with A25U, A26C, U27C, A28C, U29C, C30G", "DNA 1": "CAATCTGAATTCCGGTCTCCC", "DNA 2": "TGGTGGCTACGACGGGATT"}, "B8": {"name": "AACGGGA (DNA:RNA)", "RNA": "B1 RNA with U27C, A28G, U29G, C30G, G31A", "DNA 1": "CAATCTGAATTCCGGTCTCCC", "DNA 2": "TGGTGGCTACGACGGGATT"}, "B9": {"name": "GCCAAGC (DNA:RNA)", "RNA": "B1 RNA with A25G, A26C, U27C, U29A, C30G, G31C", "DNA 1": "CAATCTGAATTCCGGTCTCCC", "DNA 2": "TGGTGGCTACGACGGGATT"}, "B10": {"name": "UACUAGC (DNA:RNA)", "RNA": "B1 RNA with A25U, U27C, A28U, U29A, C30G, G31C", "DNA 1": "CAATCTGAATTCCGGTCTCCC", "DNA 2": "TGGTGGCTACGACGGGATT"}, "B11": {"name": "UUAGCUU (DNA:RNA)", "RNA": "GGGAGACCGGAAUUCAGAUUGUCCUUAGCUUUUAAAUCCCGUCGUAGCCACCA", "DNA 1": "CAATCTGAATTCCGGTCTCCC", "DNA 2": "TGGTGGCTACGACGGGATT"}, "B12": {"name": "UCAUACG (DNA:RNA)", "RNA": "B1 RNA with A25U, A26C, U27A, A28U, U29A", "DNA 1": "CAATCTGAATTCCGGTCTCCC", "DNA 2": "TGGTGGCTACGACGGGATT"}, "B13": {"name": "UGCGCCG (DNA:RNA)", "RNA": "B11 RNA with U26G, A27C, U30C, U31G", "DNA 1": "CAATCTGAATTCCGGTCTCCC", "DNA 2": "TGGTGGCTACGACGGGATT"}, "B14": {"name": "CUGAACC (DNA:RNA)", "RNA": "B1 RNA with A25C, A26U, U27G, U29A, G31C", "DNA 1": "CAATCTGAATTCCGGTCTCCC", "DNA 2": "TGGTGGCTACGACGGGATT"}, "B15": {"name": "ACGGGAA (DNA:RNA)", "RNA": "B1 RNA with A26C, U27G, A28G, U29G, C30A, G31A", "DNA 1": "CAATCTGAATTCCGGTCTCCC", "DNA 2": "TGGTGGCTACGACGGGATT"}, "B16": {"name": "UCCCACG (DNA:RNA)", "RNA": "B1 RNA with A25U, A26C, U27C, A28C, U29A", "DNA 1": "CAATCTGAATTCCGGTCTCCC", "DNA 2": "TGGTGGCTACGACGGGATT"}, "B17": {"name": "GCAGGGA (DNA:RNA)", "RNA": "B11 RNA with U25G, U26C, C29G, U30G, U31A", "DNA 1": "CAATCTGAATTCCGGTCTCCC", "DNA 2": "TGGTGGCTACGACGGGATT"}, "B18": {"name": "CCCUGAU (DNA:RNA)", "RNA": "B11 RNA with U25C, U26C, A27C, G28U, C29G, U30A", "DNA 1": "CAATCTGAATTCCGGTCTCCC", "DNA 2": "TGGTGGCTACGACGGGATT"}, "B19": {"name": "GAUUCUC (DNA:RNA)", "RNA": "B1 RNA with A25G, A28U, U29C, C30U, G31C", "DNA 1": "CAATCTGAATTCCGGTCTCCC", "DNA 2": "TGGTGGCTACGACGGGATT"}, "B20": {"name": "GUUAUUG (DNA:RNA)", "RNA": "B1 RNA with A25G, A26U, C30U", "DNA 1": "CAATCTGAATTCCGGTCTCCC", "DNA 2": "TGGTGGCTACGACGGGATT"}, "B21": {"name": "GUUUCAG (DNA:RNA)", "RNA": "B1 RNA with A25G, A26U, A28U, U29C, C30A", "DNA 1": "CAATCTGAATTCCGGTCTCCC", "DNA 2": "TGGTGGCTACGACGGGATT"}, "B22": {"name": "UUACCAG (DNA:RNA)", "RNA": "B11 RNA with G28C, U30A, U31G", "DNA 1": "CAATCTGAATTCCGGTCTCCC", "DNA 2": "TGGTGGCTACGACGGGATT"}, "B23": {"name": "GCAGUUC (DNA:RNA)", "RNA": "B11 RNA with U25G, U26C, C29U, U31C", "DNA 1": "CAATCTGAATTCCGGTCTCCC", "DNA 2": "TGGTGGCTACGACGGGATT"}, "B24": {"name": "ACAUCGG (DNA:RNA)", "RNA": "B1 RNA with A26C, U27A, A28U, U29C, C30G", "DNA 1": "CAATCTGAATTCCGGTCTCCC", "DNA 2": "TGGTGGCTACGACGGGATT"}, "B25": {"name": "GCGCGAC (DNA:RNA)", "RNA": "GGGAGACCGGAAUUCAGAUUGUCCGCGCGACUUAAAUCCCGUCGUAGCCACCA", "DNA 1": "CAATCTGAATTCCGGTCTCCC", "DNA 2": "TGGTGGCTACGACGGGATT"}, "B26": {"name": "CGGUCUC (DNA:RNA)", "RNA": "B25 RNA with G25C, C26G, C28U, G29C, A30U", "DNA 1": "CAATCTGAATTCCGGTCTCCC", "DNA 2": "TGGTGGCTACGACGGGATT"}, "B27": {"name": "CUGCAUU (DNA:RNA)", "RNA": "B11 RNA with U25C, A27G, G28C, C29A", "DNA 1": "CAATCTGAATTCCGGTCTCCC", "DNA 2": "TGGTGGCTACGACGGGATT"}, "B28": {"name": "GCACCAA (DNA:RNA)", "RNA": "B25 RNA with G27A, G29C, C31A", "DNA 1": "CAATCTGAATTCCGGTCTCCC", "DNA 2": "TGGTGGCTACGACGGGATT"}, "B29": {"name": "GUGUAGA (DNA:RNA)", "RNA": "B25 RNA with C26U, C28U, G29A, A30G, C31A", "DNA 1": "CAATCTGAATTCCGGTCTCCC", "DNA 2": "TGGTGGCTACGACGGGATT"}, "B30": {"name": "ACGGCUC (DNA:RNA)", "RNA": "B25 RNA with G25A, C28G, G29C, A30U", "DNA 1": "CAATCTGAATTCCGGTCTCCC", "DNA 2": "TGGTGGCTACGACGGGATT"}, "B31": {"name": "CCGCCUG (DNA:RNA)", "RNA": "B25 RNA with G25C, G29C, A30U, C31G", "DNA 1": "CAATCTGAATTCCGGTCTCCC", "DNA 2": "TGGTGGCTACGACGGGATT"}}, "note": "Where a chain is given by its changes, count along the chain named. The list shows a part of the results."}
{"biological_target": "T1, RBFOX1 RRM RbFoxmut (Fox-RRM*) (Homo sapiens, UniProt Q9NWB1 109-208, R118D;E147R;N151S;E152T)", "T1 sequence": "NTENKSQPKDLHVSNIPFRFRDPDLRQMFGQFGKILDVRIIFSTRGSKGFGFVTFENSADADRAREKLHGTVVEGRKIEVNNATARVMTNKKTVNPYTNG", "assay": "EMSA; HiTS-Eq, 1 nM pool, 10 min; buffer printed only for the single-RNA assays: 10 mM Tris pH 7.5, 150 mM NaCl, 3.4 mM EDTA, 0.001% NP-40, 30 C", "settings": "tags: His6 N-terminal (pET28a); label: 5' 32P", "how_it_was_run": "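Relative association constants, normalised to the cognate motif, were derived by comparing read counts of each RNA species with those of the control reaction. The RNA sequenced was the free fraction, separated by 8% native PAGE after a 10 min equilibration in 50 µL of 1 nM 5′-radiolabelled RNA (7 randomized nucleotides) with increasing concentrations of purified wild-type or mutant RbFox RRM.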"}
{"binder": "B1", "binding signal": "0.1 KA relative to UGCAUGU"}
{"binder": "B2", "binding signal": "0.12 KA relative to UGCAUGU"}
{"binder": "B3", "binding signal": "0.124 KA relative to UGCAUGU"}
{"binder": "B4", "binding signal": "0.094 KA relative to UGCAUGU"}
{"binder": "B5", "binding signal": "0.154 KA relative to UGCAUGU"}
{"binder": "B6", "binding signal": "0.138 KA relative to UGCAUGU"}
{"binder": "B7", "binding signal": "0.0768 KA relative to UGCAUGU"}
{"binder": "B8", "binding signal": "0.0959 KA relative to UGCAUGU"}
{"binder": "B9", "binding signal": "0.0532 KA relative to UGCAUGU"}
{"binder": "B10", "binding signal": "0.0649 KA relative to UGCAUGU"}
{"binder": "B11", "binding signal": "0.11 KA relative to UGCAUGU"}
{"binder": "B12", "binding signal": "0.115 KA relative to UGCAUGU"}
{"binder": "B13", "binding signal": "0.121 KA relative to UGCAUGU"}
{"binder": "B14", "binding signal": "0.0804 KA relative to UGCAUGU"}
{"binder": "B15", "binding signal": "0.124 KA relative to UGCAUGU"}
{"binder": "B16", "binding signal": "0.136 KA relative to UGCAUGU"}
{"binder": "B17", "binding signal": "0.0749 KA relative to UGCAUGU"}
{"binder": "B18", "binding signal": "0.0882 KA relative to UGCAUGU"}
{"binder": "B19", "binding signal": "0.068 KA relative to UGCAUGU"}
{"binder": "B20", "binding signal": "0.158 KA relative to UGCAUGU"}
{"binder": "B21", "binding signal": "0.153 KA relative to UGCAUGU"}
{"binder": "B22", "binding signal": "0.122 KA relative to UGCAUGU"}
{"binder": "B23", "binding signal": "0.0819 KA relative to UGCAUGU"}
{"binder": "B24", "binding signal": "0.0909 KA relative to UGCAUGU"}
{"binder": "B25", "binding signal": "0.0897 KA relative to UGCAUGU"}
{"binder": "B26", "binding signal": "0.088 KA relative to UGCAUGU"}
{"binder": "B27", "binding signal": "0.0889 KA relative to UGCAUGU"}
{"binder": "B28", "binding signal": "0.108 KA relative to UGCAUGU"}
{"binder": "B29", "binding signal": "0.127 KA relative to UGCAUGU"}
{"binder": "B30", "binding signal": "0.0927 KA relative to UGCAUGU"}
{"binder": "B31", "binding signal": "0.151 KA relative to UGCAUGU"}
